In PubChem BioAssay AID1645887 (National Center for Advancing Translational Sciences (NCATS), 2021):
Where “and” joins values, the source holds several entries; their conditions need not be identical. Equal values may be shown once. Hit rate of the full screen: of about 16,000 compounds, about 40 (0.2%) were called active. Inconclusive results (about 1%) are left out. Calls come from the whole dose curve; as a rule, active = well fitted activation curve with a large enough effect; inconclusive = small, poorly fitted or top-dose-only effect, or another doubt; inactive = no such curve, though single readings can be large or run the other way. The list shows a part of the results.

biological target: Rap guanine nucleotide exchange factor 4 (Homo sapiens) (UniProt Q8WZA2); assay: Validation qHTS for agonist of cAMP-regulated guanine nucleotide exchange factor 4 (EPAC2); details: EPAC2 Rap1B BODIPY-GDP exchange, fluorescence; activation: hits give high values;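 note: exchange makes BODIPY-GDP fluorescence drop when released from Rap1B; series mostly up to about 150 µM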
Procedure, shortened: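 Signal normalized against 6.5 mM cAMP as agonist control. Mix of EPAC2 (100 nM), RAP1B-BODIPY-GDP (250 nM) and GDP (50 uM) was read kinetically at 480/540 nm, every 5 min over 30 min, after 5 min room-temperature incubation with compound.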
% is set by controls: 0 for no effect and ±100 for the full control effect.

UniProt Q8WZA2, sequence (Q8WZA2 whole entry, looked up): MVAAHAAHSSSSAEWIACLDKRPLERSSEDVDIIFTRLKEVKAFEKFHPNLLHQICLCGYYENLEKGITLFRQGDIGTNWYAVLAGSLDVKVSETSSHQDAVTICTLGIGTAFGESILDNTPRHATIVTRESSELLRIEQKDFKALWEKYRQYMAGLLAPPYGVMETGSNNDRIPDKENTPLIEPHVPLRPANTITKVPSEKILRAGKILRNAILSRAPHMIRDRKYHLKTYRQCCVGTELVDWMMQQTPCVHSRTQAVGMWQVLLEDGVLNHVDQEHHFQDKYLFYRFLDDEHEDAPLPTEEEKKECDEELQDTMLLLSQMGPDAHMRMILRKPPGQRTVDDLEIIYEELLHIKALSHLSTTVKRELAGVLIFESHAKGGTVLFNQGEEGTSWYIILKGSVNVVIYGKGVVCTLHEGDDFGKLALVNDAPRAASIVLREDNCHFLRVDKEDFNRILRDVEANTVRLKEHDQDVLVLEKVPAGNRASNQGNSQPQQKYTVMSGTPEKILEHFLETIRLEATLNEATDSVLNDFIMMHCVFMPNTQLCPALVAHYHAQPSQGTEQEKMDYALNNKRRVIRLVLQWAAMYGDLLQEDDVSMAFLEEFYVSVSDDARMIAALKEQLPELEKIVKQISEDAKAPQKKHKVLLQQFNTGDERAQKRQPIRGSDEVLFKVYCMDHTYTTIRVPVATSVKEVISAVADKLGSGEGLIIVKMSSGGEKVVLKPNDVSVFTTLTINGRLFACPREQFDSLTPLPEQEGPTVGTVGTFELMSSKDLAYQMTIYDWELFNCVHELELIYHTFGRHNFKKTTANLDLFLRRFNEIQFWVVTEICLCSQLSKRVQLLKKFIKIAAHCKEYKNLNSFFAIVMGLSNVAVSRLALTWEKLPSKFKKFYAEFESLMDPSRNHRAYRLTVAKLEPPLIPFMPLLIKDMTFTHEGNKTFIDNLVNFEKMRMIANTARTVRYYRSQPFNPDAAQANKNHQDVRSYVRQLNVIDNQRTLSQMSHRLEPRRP

activation, inactive:
COc1ccc(C(OCCN2CCC[C@@H](C(=O)O)C2)(c2ccc(OC)cc2)c2ccc(OC)cc2)cc1 -3.87%
CCNc1ncc2nc(-c3cn(C)c4ccccc34)c(=O)n(-c3ccc(OC)cc3)c2n1 -20.7%
COCC(=O)Nc1cc(C(=O)N2CCCCC2c2nccn2C)cc2nc(-c3ccccc3)n(C)c12 (configuration not stated) -2.65%
N#Cc1cccc(NC(=O)N2CC[C@@]3(CCCN(S(=O)(=O)c4ccccc4)C3)C2)c1 -12.6%
CN1CCN(c2ncnc3ccc(-c4ccccc4Cl)cc23)CC1 -28.5%
Clc1ccccc1-c1nc(NCc2cccnc2)c2ccccc2n1 -16.8%
COc1ccccc1CN1CC[C@@]2(CCCN(C(C)=O)C2)C1 -22.1%
COc1ccccc1CN1CC2(CCN(S(C)(=O)=O)CC2)C1 -0.942%
CS(=O)(=O)CCCCN=C=S -7.4%
COCc1c(C(=O)N2CCC(N3CCCCC3)CC2)cnn1-c1ncc(C)c(-c2cccs2)n1 -9.94%
CCCCc1nc(Cl)c(CO)n1Cc1ccc(-c2ccccc2-c2nn[nH]n2)cc1 -13%
c1nc(N2CCNCC2)c2cc(-c3ccc4c(c3)OCO4)ccc2n1 1.73%
CCCCCC[C@@H](O)C/C=C\CCCCCCCC(=O)O -17.5% and -26.2% and -12.3%
CC1=CCC2CC1C2(C)C (configuration not stated) -11.5%
CNCC(O)c1ccc(OC(=O)C(C)(C)C)c(OC(=O)C(C)(C)C)c1 (configuration not stated) -13.1%
CN1C(=O)N(C)C2=NNC=NC2(O)C1=O (configuration not stated) 7.86%
COC(=O)C1CCN(Cc2ccc3c(c2)CN(C(=O)c2ncc(C)[nH]2)CCO3)CC1 -13.6%
CN(C)c1ccc(C(=C2C=CC(=[N+](C)C)C=C2)c2c(O)c(S(=O)(=O)[O-])cc3cc(S(=O)(=O)O)ccc23)cc1 -17%
CN(C)Cc1ccccc1-c1cncnc1Nc1ccccc1 -10.2%
CCN(CC)CCc1nc(-c2ccccc2)no1 6%
CCCCC(CC)COC(=O)/C=C/c1ccc(OC)cc1 (configuration not stated) -2.21%
c1cncc(-c2nc(-n3ccnc3)c3ccccc3n2)c1 -12.2%
Cc1ccc2ncc(C)c(C)c2c1 -22.7%
CCC(/C=C/C(C)C1CCC2C3CC=C4CC(O)CC[C@@]4(C)C3CC[C@@]12C)C(C)C (some centres not stated) -30.7%
O=C(NCC1Cc2cccc(-c3cccnc3)c2O1)c1ccc2cc[nH]c2c1 (configuration not stated) 7.6%
COCCCCCCCCCCCC(=O)O -18%
C=CC1(C)CC(=O)C2(O)C(C)(O1)C(OC(C)=O)C(O)C1C(C)(C)CCC(O)C12C (configuration not stated) 15.7%
NCCNCCN 2.01%
COc1ccccc1-c1cc(Nc2ccc(F)cc2)ncn1 -14.7%
CC(C)CN1CCC2(CC1)CCN(C(=O)c1cnccn1)CC2 -11.5%
Nc1ncnc2c1c(-c1ccc(Oc3ccccc3)cc1)cn2C1CCCC1 -38.5%
COc1ccc2c3c1OC1CC(O)C=C[C@@]31CCN(C)C2 (some centres not stated) -2.88%
Cc1noc(C)c1C(=O)N1CCC[C@@]2(CCN(c3ncccn3)C2)C1 -7%
O=Cc1ccc(Cl)cc1 -8.69%
CN1CCC[C@@H]1c1cccnc1 -3.02%
O=C(Nc1ccccc1)N1CC[C@@]2(CCCN(C(=O)c3ccncc3)C2)C1 -1.1%
CC(C)c1ccc(CN2CCC3(CCC(CNC(=O)c4ccn(C)n4)O3)CC2)cc1 (configuration not stated) -7.2%
C=CC1=C(C)C2=CC3=NC(=C(CC(=O)[O-])C4=NC(=C(C)C4=C([O-])[O-])C=c4[n-]c(c(C)c4CC)=CC1=N2)C(CCC(=O)[O-])C3C.[Cu+2].[Na+].[Na+].[Na+] (configuration not stated) -19.1%
COCC1CCCN(Cc2ccc3c(c2)CN(C(=O)c2cc(-c4ccccc4)n[nH]2)CCO3)C1 (configuration not stated) -12.3%
CC(C)NC[C@@H](O)COc1cccc2ccccc12 -1.65% [middle of 4 runs]
CC(=O)Oc1ccc2c(c1)CCC1C2CC[C@@]2(C)C1CC(OC(C)=O)C2OC(C)=O (some centres not stated) -4.15%
CCc1cn([C@H]2C[C@H](O)[C@@H](CO)O2)c(=O)[nH]c1=O 3.2%
COC(=O)[C@H](CC(C)C)NS(=O)(=O)N[C@@H](CC(C)C)C(=O)OC -28.5%
COc1ccccc1CNc1ncnc2ccc(-c3cccc(C#N)c3)cc12 -0.576%
O=S(=O)(O)NC1CCCCC1 -16.2%
CN(Cc1ccco1)C(=O)c1cc(NC(=O)C2CCC2)c2c(c1)nc(-c1ccncc1)n2C -9.71%
COc1cc(=O)n2c(c1C(=O)NC(C)c1ccco1)CCN(Cc1ccnc3ccccc13)CC2 (configuration not stated) -7.02%
CC1(C)[C@H]2CC[C@]1(C)[C@H](O)C2 -5.52%
COc1cc(OC)c(/C=C/c2ccc3ccccc3n2)c(OC)c1 -5.28%
COc1ccccc1-c1nc2cc(C(=O)NC[C@H]3CCc4ccccc4O3)cc(NC(C)=O)c2n1C -20.1%
Cc1noc(C)c1CC(=O)NCC1Cc2cc(-c3cccc(OC(F)(F)F)c3)ccc2O1 (configuration not stated) -39.8%
COCc1c(C(=O)N2CCN(C3CCCC3)CC2)cnn1-c1nccc(-c2cccs2)n1 1.9%
CC1(C)[C@@H](O)CC[C@]2(C)C3C(=O)C=C4C5C[C@@](C)(C(=O)O)CC[C@]5(C)CC[C@@]4(C)[C@]3(C)CC[C@@H]12 (some centres not stated) 7.05%
Cc1cccc(CNC(=O)c2cnn(-c3nccc(-c4ccccc4F)n3)c2C2CC2)n1 -19%
Cc1cc(-c2ccc(N=Nc3c(S(=O)(=O)O)cc4cc(S(=O)(=O)O)cc(N)c4c3O)c(C)c2)ccc1N=Nc1c(S(=O)(=O)O)cc2cc(S(=O)(=O)O)cc(N)c2c1O -32.7%
CC(NC(=O)c1ccco1)c1nnc2n1CCN(Cc1ccc(N3CCCC3)cc1)CC2 (configuration not stated) -1.63%
Cc1ccccc1-c1nccc(NCc2cccs2)n1 -8.47%
CCC1CN(CCNC(=O)c2cccc3nccnc23)Cc2cc(OC)ccc2O1 (configuration not stated) -4.63%
COc1ccc(CNc2nc(-c3ccc(N(C)C)cc3)nc3ccccc23)c(OC)c1 -12.3%
COc1ccccc1CN1CCCC2(CCNCC2)C1 -10.4%
O=c1cnc2cnc(Oc3ccccc3)nc2n1C1CC1 3.29%
OC1C(O)C(O)C(O)C(O)C1O (configuration not stated) -9.31%
CN=C(NC)NCc1ccccc1 1.03%
Nc1nc2ccc(Cl)cc2c2nc(-c3ccco3)nn12 -6.6% and 9.44% and -10.6%
CC(C)(CNC(=O)c1cnn(-c2ncc3c(n2)-c2ccccc2CC3)c1C1CC1)N1CCOCC1 -16.6%
C=C[C@@H]1c2cc(C)ccc2N(S(=O)(=O)c2ccc(C)cc2)[C@H](c2ccccc2C(F)(F)F)C1(C#N)C#N -17.7%
CCCCC/C=C\C[C@@H](O)/C=C/C=C/C=C\[C@@H](O)CCCC(=O)O -2.51%
Cc1[nH]cnc1C[C@H]1CCc2c(C)c3ccccc3n2C1=O -32.2%
CCC(C)N(C)C(=O)c1cc2ccccc2c(-c2ccccc2Cl)n1 (configuration not stated) 5.22% and -7.11%
COc1ccc(-c2nc3cnc(N4CCNCC4)nc3n(CCC#N)c2=O)cc1 -4.12%
Cc1ccc2c(c1)cc(CN(C)Cc1nc(C)cs1)c(=O)n2C 16.8%
Cc1cnc(CNc2ncnc3ccc(-c4ccccc4CN(C)C)cc23)cn1 -16.6%
COc1cc2c(cc1C(F)(F)F)N(C(=O)Nc1cc(F)cc(-c3cccnc3)c1)CC2 -14.9%
COc1ccc(Oc2ncc3ncc(=O)n(C4CC4)c3n2)cc1 -16.2%
CN(C)Cc1ccccc1-c1ccc2ncnc(N(C)C)c2c1 -5.89%
O=C(C[N+]1(CC(O)c2ccccc2)CCOCC1)c1ccccc1 (configuration not stated) -18.6%
COc1cc(=O)n2c(c1C(=O)N(C)Cc1nonc1C)CCN(C(=O)c1cccc(C)c1C)CC2 7.36%
C[C@H](CCC(=O)O)C1CC[C@H]2C3CC[C@@H]4C[C@H](O)CC[C@]4(C)C3C[C@H](O)[C@]12C (some centres not stated) -16%
COc1ccccc1CNc1nc(-c2cccc(NS(C)(=O)=O)c2)nc2ccccc12 1.46%
COc1ncc2nc(-c3ccc(Cl)cc3)c(=O)n(CCC#N)c2n1 -6.31%
CCC1(C2CCN(Cc3ccccc3Cl)CC2)NC(=O)N(CC2COc3ccccc3O2)C1=O (configuration not stated) -11.6%
CCC1COCCS(=O)(=O)N1Cc1ccc(F)cc1 (configuration not stated) -16.8%
COc1ccc([C@H]2c3cc(OC)c(OC)cc3C[C@@H](C)[C@@H]2C)cc1OC -15.1%
CNc1ncnc2ccc(-c3ccccc3C#N)cc12 -6.87%
COc1cc(OC)c(OC)cc1CN1CCCC(c2[nH]ncc2-c2cccc(C(F)(F)F)c2)C1 (configuration not stated) -17.4%
CCC1CN(CCC(=O)NC2CCOC(C)(C)C2)Cc2cc(OC)ccc2O1 (configuration not stated) -12.4%
Cc1csc(C(C)N(C)C(=O)c2cnn(-c3nccc(-c4cc(C)sc4C)n3)c2C)n1 (configuration not stated) -12.6%
